Some of the results follow.
What follows are compounds tested on HSkMC (human skeletal muscle cells) (assay: cytotoxicity call (relative viability < 0.9)). Details: 10 µM.

Row | Structure (SMILES) | cytotoxicity call
1 | C[C@@H]1CN([C@H](C)CO)C(=O)Cc2cc(NC(=O)Cn3cnnn3)ccc2O[C@@H]1CN(C)CC1CC1 | inactive
2 | O=C(O)CCCCCCC(=O)Nc1ccc([C@H]2O[C@@H](CSc3nc(-c4ccccc4)c(-c4ccccc4)o3)C[C@H](c3ccc([N+](=O)[O-])cc3)O2)cc1 | inactive
3 | CN(C)[C@@H]1C(=O)[C@@H](C(N)=O)C(=O)[C@@]2(O)C(=O)[C@@H]3C(=O)c4c(O)c(NC(=O)CN5CCCC5)cc(F)c4C[C@H]3C[C@@H]12 | inactive
4 | O=C1CCOC1 | inactive
5 | C[C@@H]1CN([C@H](C)CO)C(=O)CCCn2nncc2CO[C@@H]1CN(C)Cc1cccc2c1OCCCO2 | inactive
6 | Nc1nnc(-c2ccc([N+](=O)[O-])o2)o1 | inactive
7 | C[C@@H]1CCCCO[C@H](CN(C)S(=O)(=O)c2ccc(F)cc2)[C@@H](C)CN([C@@H](C)CO)C(=O)c2cc(NS(=O)(=O)c3ccc(Cl)cc3)ccc2O1 | inactive
8 | CC(C)c1cc(N2CC[C@@H](N)C2)nc(N)n1 | inactive
9 | Cc1ccc(S(=O)(=O)Nc2ccc3c(c2)C(=O)N([C@H](C)CO)C[C@H](C)[C@H](CN(C)S(C)(=O)=O)OCCCC[C@@H](C)O3)cc1 | inactive
10 | CCCCCCCCCCCCCCCCCC(=O)OC[C@@H](COP(=O)(O)OCC[N+](C)(C)C)OC(=O)CCCCCCCCCCCCCCCCC | inactive
11 | C[C@@H]1CN([C@@H](C)CO)C(=O)c2cc(NC(=O)Nc3ccccc3)ccc2O[C@H]1CN(C)S(=O)(=O)c1cn(C)cn1 | inactive
12 | CO[C@@H]1CN(C)C(=O)c2ccc(NC(=O)C3CC3)cc2OC[C@@H](C)N(C(=O)CN2CCOCC2)C[C@@H]1C | inactive
13 | C[C@H]1CCCCO[C@H](CN(C)S(=O)(=O)c2ccc(F)cc2)[C@@H](C)CN([C@@H](C)CO)C(=O)c2cc(NC(=O)Nc3cccc4ccccc34)ccc2O1 | inactive
14 | N=C(N)SCCN1C(=O)c2ccccc2C1=O | inactive
15 | COc1ccc(-c2cc(C(F)F)nn2-c2ccc(S(N)(=O)=O)cc2)cc1F | inactive
16 | CO[C@@H]1CN(C)C(=O)c2ccc(NS(=O)(=O)CC(F)(F)F)cc2OC[C@H](C)N(C(=O)NC(C)C)C[C@H]1C | inactive
17 | COc1ccc(CN2C[C@H](C)[C@@H](OC)CN(C)C(=O)c3ccc(NC(=O)c4nc5ccccc5s4)cc3OC[C@@H]2C)cc1 | inactive
18 | COC1=C(O)C(=O)c2c(cc3oc(C(C)=O)c(O)c3c2O)C1=O | inactive
19 | COc1ccc2c3c([nH]c2c1)[C@H](CO)N(Cc1ccc(cc1)Cl)C[C@]13CCN(CC1)Cc1nccs1 | inactive
20 | C[C@@H]1CN([C@@H](C)CO)C(=O)c2cc(NC(=O)C3CCCCC3)ccc2O[C@@H](C)CCCCO[C@@H]1CN(C)C(=O)Nc1ccc(F)cc1 | inactive

Row | Structure (SMILES) | cytotoxicity call
21 | Cc1noc(C)c1NC(=O)N(C)C[C@@H]1OCCCC[C@H](C)Oc2ccc(NS(=O)(=O)c3ccc(Cl)cc3)cc2C(=O)N([C@@H](C)CO)C[C@H]1C | inactive
22 | N=C(N)SCc1ccc(B(O)O)cc1 | inactive
23 | Cc1ccc(S(=O)(=O)Nc2ccc3c(c2)C(=O)N([C@@H](C)CO)C[C@@H](C)[C@@H](CN(C)S(=O)(=O)c2ccc(C)cc2)OCCCC[C@@H](C)O3)cc1 | inactive
24 | COc1ccc(NC(=O)Nc2ccc3c(c2)C(=O)N([C@H](C)CO)C[C@H](C)[C@@H](CN(C)Cc2ccncc2)OCCCC[C@H](C)O3)cc1 | inactive
25 | Cc1cc(NC2CCCCC2)ncn1 | inactive
26 | O=C(NO)c1ccncc1 | inactive
27 | C=CCSc1n[nH]c2nc(=O)cc(N)n12 | inactive
28 | C[C@@H]1CCCCO[C@H](CN(C)C(=O)Nc2cccc3ccccc23)[C@H](C)CN([C@H](C)CO)C(=O)c2cc(NC(=O)C3CCCCC3)ccc2O1 | inactive
29 | CNC(=O)C[C@H]1CC[C@H]2[C@@H](COC[C@@H](O)CN2C(=O)Nc2cccc(OC)c2)O1 | inactive
30 | CC(C)NC(=O)N(C)C[C@H]1Oc2cc(C#Cc3ccccn3)ccc2S(=O)(=O)N([C@H](C)CO)C[C@H]1C | inactive
31 | NCC[C@@H]1CC[C@@H](NC(=O)NC2CCCCC2)[C@@H](CO)O1 | inactive
32 | C[C@H](CO)N1C[C@H](C)[C@H](CN(C)C(=O)Nc2ccc(C(F)(F)F)cc2)OCCCC[C@H](C)Oc2ccc(NC(=O)NC3CCCCC3)cc2C1=O | inactive
33 | C[C@@H](O)C#Cc1ccc2c(c1)O[C@@H](CN(C)C(=O)CN(C)C)[C@@H](C)CN([C@@H](C)CO)S2(=O)=O | inactive
34 | Cc1cc(=O)n2ncnc2[nH]1 | inactive
35 | O=c1c(O)c(-c2ccc(O)c(O)c2)oc2cc(O)ccc12 | inactive
36 | C[C@H]1CN([C@@H](C)CO)C(=O)Cc2cc(NS(=O)(=O)c3ccc(F)cc3)ccc2O[C@@H]1CN(C)Cc1ccncc1 | inactive
37 | C[C@@H]1CCCCO[C@@H](CN(C)S(=O)(=O)c2ccc(Cl)cc2)[C@@H](C)CN([C@H](C)CO)C(=O)c2cc(NC(=O)c3ccccc3)ccc2O1 | inactive
38 | O=C(C[C@H]1CC[C@@H](NS(=O)(=O)c2ccc(F)cc2)[C@H](CO)O1)N1CCC(Cc2ccccc2)CC1 | inactive
39 | c1cnc2c(c1)OCCN2 | inactive
40 | C[C@H]1CN([C@@H](C)CO)C(=O)c2c(c3ccccc3n2C)-c2ccccc2CO[C@@H]1CN(C)Cc1ccc(-c2ccccc2)cc1 | inactive
